These are yes or no findings as the source states them, for the method shown. In cells and extracts the contact can be indirect. Some entries that bind do so weakly or less than the wild type. For part of these data: Tags and fused reporters may be left off the sequences shown.
Columns and labels:
[1] = target: endogenous IKK complex (human (endogenous in HeLa)) (UniProt O15111+O14920+Q9Y6K9); test: co-IP; endogenous IKK complex immunoprecipitated from HeLa cells transfected with Hsp60c constructs (HA tag) for 24 hrs; cells of Fig. 6A then treated with TNF-α
[2] = target: T1, IKKβ, Flag-tagged (human) (UniProt O14920); test: co-IP; 293T cells co-transfected with Hsp60c constructs (HA tag) and each of the IKK subunit proteins (Flag tag) for 24 hrs
T1 sequence: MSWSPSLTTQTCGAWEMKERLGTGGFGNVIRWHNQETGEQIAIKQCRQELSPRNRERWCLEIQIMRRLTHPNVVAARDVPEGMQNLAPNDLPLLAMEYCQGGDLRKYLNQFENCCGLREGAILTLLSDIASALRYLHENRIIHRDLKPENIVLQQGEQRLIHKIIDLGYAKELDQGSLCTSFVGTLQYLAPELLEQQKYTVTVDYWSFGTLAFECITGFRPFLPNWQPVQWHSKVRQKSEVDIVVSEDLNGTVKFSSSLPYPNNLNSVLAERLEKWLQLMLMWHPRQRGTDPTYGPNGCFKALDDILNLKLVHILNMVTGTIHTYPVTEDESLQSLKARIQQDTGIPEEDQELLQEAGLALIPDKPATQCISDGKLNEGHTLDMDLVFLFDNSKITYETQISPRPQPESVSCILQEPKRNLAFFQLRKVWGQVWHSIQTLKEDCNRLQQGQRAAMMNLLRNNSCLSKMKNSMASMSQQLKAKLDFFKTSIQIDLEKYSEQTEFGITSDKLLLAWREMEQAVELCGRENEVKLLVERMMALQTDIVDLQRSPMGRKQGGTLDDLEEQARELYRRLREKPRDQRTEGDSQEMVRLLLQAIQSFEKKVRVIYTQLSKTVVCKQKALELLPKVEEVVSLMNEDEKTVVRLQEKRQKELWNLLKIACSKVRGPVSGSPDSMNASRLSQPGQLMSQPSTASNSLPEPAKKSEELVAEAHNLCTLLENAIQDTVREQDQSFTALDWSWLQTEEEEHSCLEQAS

By UniProt entry, the sequences of proteins in these tests, tags left out. Where a name states a change or a piece, a line headed by the entry shows the natural chain unless it says otherwise. Residues count along the entry.
UniProt Q9Y6K9: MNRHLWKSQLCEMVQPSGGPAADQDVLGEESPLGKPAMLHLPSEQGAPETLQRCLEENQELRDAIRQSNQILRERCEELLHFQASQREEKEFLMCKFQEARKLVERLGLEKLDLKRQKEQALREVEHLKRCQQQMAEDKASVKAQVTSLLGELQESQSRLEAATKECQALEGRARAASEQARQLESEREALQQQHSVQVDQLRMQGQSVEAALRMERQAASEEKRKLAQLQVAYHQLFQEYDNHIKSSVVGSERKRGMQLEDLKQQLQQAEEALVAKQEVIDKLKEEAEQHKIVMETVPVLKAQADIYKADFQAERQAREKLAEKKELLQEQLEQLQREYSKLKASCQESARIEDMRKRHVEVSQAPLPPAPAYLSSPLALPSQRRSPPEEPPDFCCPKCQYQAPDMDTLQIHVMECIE
UniProt P10809, residues 27-573: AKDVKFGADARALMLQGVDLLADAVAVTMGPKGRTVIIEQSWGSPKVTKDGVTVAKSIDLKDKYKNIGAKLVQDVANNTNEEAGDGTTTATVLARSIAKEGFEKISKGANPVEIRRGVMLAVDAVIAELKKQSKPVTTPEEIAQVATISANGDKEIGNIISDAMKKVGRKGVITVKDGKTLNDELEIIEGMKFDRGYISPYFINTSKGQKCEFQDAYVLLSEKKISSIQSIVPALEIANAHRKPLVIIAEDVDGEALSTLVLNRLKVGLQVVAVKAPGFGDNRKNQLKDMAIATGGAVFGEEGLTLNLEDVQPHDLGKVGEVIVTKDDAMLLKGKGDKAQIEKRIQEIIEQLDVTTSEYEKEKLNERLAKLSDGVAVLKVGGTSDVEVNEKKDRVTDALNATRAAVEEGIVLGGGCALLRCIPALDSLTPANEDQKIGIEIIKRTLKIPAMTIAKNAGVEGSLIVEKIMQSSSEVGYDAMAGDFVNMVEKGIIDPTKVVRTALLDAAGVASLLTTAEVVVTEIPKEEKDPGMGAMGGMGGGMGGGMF

[3] = target: T2, IKKα, Flag-tagged (human) (UniProt O15111); test: as above
T2 sequence: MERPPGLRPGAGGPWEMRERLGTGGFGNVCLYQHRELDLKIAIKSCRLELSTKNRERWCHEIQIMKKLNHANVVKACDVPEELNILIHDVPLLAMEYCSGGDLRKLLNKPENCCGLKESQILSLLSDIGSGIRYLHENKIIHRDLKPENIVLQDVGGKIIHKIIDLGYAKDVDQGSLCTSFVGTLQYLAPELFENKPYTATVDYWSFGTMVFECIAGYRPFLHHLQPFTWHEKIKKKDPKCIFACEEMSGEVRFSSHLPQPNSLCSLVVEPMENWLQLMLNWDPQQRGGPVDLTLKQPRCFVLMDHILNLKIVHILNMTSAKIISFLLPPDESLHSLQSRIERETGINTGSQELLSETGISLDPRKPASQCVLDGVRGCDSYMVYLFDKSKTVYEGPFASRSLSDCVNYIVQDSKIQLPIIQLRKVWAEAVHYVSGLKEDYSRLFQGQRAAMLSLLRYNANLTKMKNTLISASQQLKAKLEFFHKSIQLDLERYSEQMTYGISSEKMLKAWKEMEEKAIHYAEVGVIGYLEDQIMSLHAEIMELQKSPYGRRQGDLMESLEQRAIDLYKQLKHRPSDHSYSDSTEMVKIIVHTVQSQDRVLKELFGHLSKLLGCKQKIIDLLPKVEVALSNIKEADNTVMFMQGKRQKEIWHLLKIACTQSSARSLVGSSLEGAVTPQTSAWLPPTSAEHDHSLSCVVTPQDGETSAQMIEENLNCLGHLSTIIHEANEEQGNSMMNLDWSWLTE

[4] = target: T3, IKKα, endogenous (human (endogenous in HeLa)) (UniProt O15111); test: co-IP; endogenous; HeLa cell lysates (500 µg total protein each) immunoprecipitated with IKKα-, IKKβ- and IKKγ-specific antibodies and protein A/G agarose, lysis buffer A, 4°C; cells with or without TNF-α (10 ng/ml), interaction unaffected
T3 sequence: T2 sequence

[5] = target: T4, IKKβ, endogenous (human (endogenous in HeLa)) (UniProt O14920); test: as above
T4 sequence: T1 sequence

[6] = target: T3, IKKα, endogenous (human (endogenous in HeLa)); test: co-IP; immunoblot of the IKK complex affinity-purified from HeLa S3 lysate with anti-IKKα antibody beads

Measured: binding

Hsp60c, cytosol-targeted version of Hsp60 lacking the mitochondrial targeting sequence, HA-tagged (from UniProt P10809 27-573) (domain or fragment)
binds: [1] | [2] | [3]

heat shock protein 60 (Hsp60), endogenous (from UniProt P10809 27-573)
binds: [4] | [5] | [6]

Source: paper PMC2843631
